The least precise scores are not listed. The source holds two more conditions with little spread; they are left out. Read del as a deletion of the residues named and ins as an insertion between two positions. For part of these data: How much ogerin was present is not stated here.
B1: GPR68, Q15743 (parent)
chain: MGNITADNSSMSCTIDHTIHQTLAPVVYVTVLVVGFPANCLSLYFGYLQIKARNELGVYLCNLTVADLFYICSLPFWLQYVLQHDNWSHGDLSCQVCGILLYENIYISVGFLCCISVDRYLAVAHPFRFHQFRTLKAAVGVSVVIWAKELLTSIYFLMHEEVIEDENQHRVCFEHYPIQAWQRAINYYRFLVGFLFPICLLLASYQGILRAVRRSHGTQKSRKDQIQRLVLSTVVIFLACFLPYHVLLLVRSVWEASCDFAKGVFNAYHFSLLLTSFNCVADPVLYCFVSETTHRDLARLRGACLAFLTCSRTGRAREAYPLGAPEASGKSGAQGEEPELLTKLHPAFQTPNSPGSGGFPTGRLA

What was measured:
[1] = variants of: B1; test: cAMP reporter score (Enrich2 score, wild type = 0); higher = more signal; HEK293T, FACS bins
[2] = variants of: B1; test: surface expression score (Enrich2 score, wild type = 0); higher = more signal; HEK293T, FACS bins

| Variant | cAMP reporter score ([1]; pH 5.5) | cAMP reporter score ([1]; pH 6) | cAMP reporter score ([1]; pH 6, modulator: ogerin) | cAMP reporter score ([1]; pH 6.5, modulator: ogerin) | surface expression score [2] |
| --- | --- | --- | --- | --- | --- |
| L43T | -1.28 | -0.66 | -1.33 | -0.976 | -1.86 |
| L43V | -1.15 | – | -2.02 | -0.746 | -2.16 |
| L43W | -0.807 | -0.89 | -0.967 | -1.39 | -2.48 |
| L43Y | -0.243 | -0.4 | -1.8 | -0.775 | – |
| L43_F45del | -1.25 | -0.92 | -0.603 | -0.994 | -2.47 |
| Y44_F45insG | -0.607 | -0.1 | -0.461 | -0.074 | -2.11 |
| F45A | -0.222 | – | -0.299 | 0.339 | -0.436 |
| F45C | -0.064 | 0.359 | -0.038 | 0.341 | -1.37 |
| F45D | -1.6 | -0.243 | -1.58 | -1.03 | -2.59 |
| F45E | -0.578 | -0.968 | -0.893 | -0.502 | -2.37 |
| F45G | -2.15 | – | -1.05 | -1.58 | -1.37 |
| F45H | 0.239 | -0.014 | 0.401 | -0.272 | -0.617 |
| F45I | -0.339 | -0.398 | -0.204 | -0.58 | 0.199 |
| F45K | 0.634 | 0.614 | 0.65 | 0.161 | -0.124 |
| F45L | 0.579 | -0.257 | -0.18 | -0.769 | 1.6 |
| F45M | 0.75 | -0.57 | 0.462 | -0.34 | 1.27 |
| F45N | -0.33 | -1.32 | – | – | -0.71 |
| F45Q | -1.05 | -0.208 | 0.075 | -1.05 | -0.867 |
| F45R | 0.117 | -0.442 | 0.392 | -0.366 | -0.441 |
| F45S | -1.12 | -0.716 | -1.37 | -1.48 | -2 |
| F45T | -0.466 | -1.5 | -0.698 | -1.49 | -3.2 |
| F45V | -1.05 | -0.199 | -1.07 | -0.48 | -1.55 |

| Variant | cAMP reporter score ([1]; pH 5.5) | cAMP reporter score ([1]; pH 6) | cAMP reporter score ([1]; pH 6, modulator: ogerin) | cAMP reporter score ([1]; pH 6.5, modulator: ogerin) | surface expression score [2] |
| --- | --- | --- | --- | --- | --- |
| F45W | -0.623 | -0.326 | -0.648 | -0.804 | 0.92 |
| F45Y | 1.14 | 0.476 | 1.17 | 0.39 | 1.22 |
| F45_G46insGS | -1.55 | -0.632 | -1.41 | -0.341 | -3 |
| G46_L48del | -1.08 | 0.946 | – | 0.32 | -2.69 |
| Y47del | -1.9 | -1.83 | -1.16 | -1.95 | -2.21 |
| Q49_I50insGSG | -1.52 | -1.11 | -1.31 | -1.19 | -2.09 |
| K51_R53del | -1.51 | -1.56 | – | -1.46 | -3.35 |
| K51del | -1.07 | -0.934 | – | -2.32 | -2.56 |
| A52_R53del | -1.32 | -0.407 | -0.475 | -0.74 | -2.84 |
| A52_R53insG | -2.05 | -0.957 | -0.718 | – | -1.85 |
| R53_E55del | -0.283 | 0.561 | -0.869 | 0.594 | -2.48 |
| N54A | -0.427 | -1.15 | -0.794 | -1.51 | -2.58 |
| N54C | -0.9 | -1.26 | -0.726 | -0.448 | -2.01 |
| N54D | -0.766 | -0.348 | -0.713 | -0.839 | -0.183 |
| N54E | -1.74 | -1.3 | -1.62 | -0.781 | -1.31 |
| N54F | -1.67 | – | -2.11 | -0.511 | -0.781 |
| N54G | -0.723 | -1.04 | -1.41 | -0.781 | -2.21 |
| N54I | -1.22 | – | -1.41 | -1.78 | -1.73 |
| N54K | -0.474 | -0.764 | -0.88 | -0.722 | -1.68 |
| N54M | 0.057 | -1.02 | -0.905 | -0.793 | -2.68 |
| N54P | -1.09 | -0.414 | -1.94 | -0.856 | -1.77 |
| N54Q | -0.548 | -1.23 | – | -2.28 | -1.28 |

| Variant | cAMP reporter score ([1]; pH 5.5) | cAMP reporter score ([1]; pH 6) | cAMP reporter score ([1]; pH 6, modulator: ogerin) | cAMP reporter score ([1]; pH 6.5, modulator: ogerin) | surface expression score [2] |
| --- | --- | --- | --- | --- | --- |
| N54R | -0.466 | -0.341 | -1.24 | -0.666 | -1.19 |
| N54S | -0.913 | -0.356 | -1.1 | -0.845 | -1.4 |
| N54T | -0.505 | – | -1.1 | -0.771 | -2.45 |
| N54V | -1.55 | -0.41 | – | -0.852 | -1.71 |
| N54W | -2.29 | -1.17 | -2.08 | -1.59 | -2.05 |
| N54Y | -0.753 | – | -2.92 | -0.462 | – |
| N54_E55insGSG | -1.45 | -1.57 | – | – | -2.49 |
| E55_L56insGSG | -1.64 | -1.37 | -1.32 | -1.01 | 0.695 |
| L56_G57insGS | -0.871 | -1.05 | – | -1.57 | – |
| L56_G57insGSG | -1.88 | -1.85 | -1.03 | -1.48 | -1.98 |
| L56_V58del | -1.45 | -1.22 | -1.35 | -0.758 | -3 |
| G57_Y59del | -1.11 | -0.44 | -2.04 | -0.834 | -2.1 |
| V58_Y59del | -1.33 | – | – | -0.907 | -2.26 |
| Y59A | -1.71 | -0.959 | -1.24 | -0.531 | -3.01 |
| Y59C | -0.88 | -0.319 | -0.907 | -0.769 | -0.528 |
| Y59E | -1.54 | -0.268 | -2.1 | -0.059 | -1.95 |
| Y59F | 1.46 | -0.393 | 0.691 | -0.191 | -0.915 |
| Y59G | -1.72 | -1.83 | -2.17 | -1.35 | -2.55 |
| Y59H | -1.32 | -2.02 | -1.57 | -1.46 | -1.89 |
| Y59I | -1.37 | -1.25 | -1.23 | -1.19 | -3.32 |

From the GPR68 mutational scans of Howard et al. (2025)
